Data taken from PubChem BioAssay AID493208 (National Center for Advancing Translational Sciences (NCATS), 2011).
Among all 44,000 compounds or so, about 340 (0.77%) were called active. Not shown: some 5% with an inconclusive outcome. The call rests on the fitted dose curve; in most records, active means well fitted inhibition curve with a large enough effect; inconclusive means small, poorly fitted or top-dose-only effect; inactive means flat fitted curve, though single readings scatter. The list shows a part of the results.

experiment: Acumen qHTS Assay for Inhibitors of the mTORC1 Signaling Pathway in MEF (Tsc2-/-, p53-/-) Cells: Sytravon; details: phospho-rpS6 immunofluorescence/PI, 24 h; series mostly up to 38.3 µM; activity change, negative = inhibition: at the top concentration;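 further: plate controls were DMSO for no effect and rapamycin for full effect; nearly all actives have a fitted effect of over 50% in size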
Procedure, shortened: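 Compounds act on Tsc2-/-, p53-/- fibroblasts carrying an empty vector for 24 h before fixation and dual staining for phospho-S6 and DNA (propidium iodide). Values are percentages of cells above a rapamycin-defined pS6/PI threshold.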

Activity change, negative = inhibition, inactive:
Cc1ccc(Cn2c(CNS(=O)(=O)c3ccc(C(C)(C)C)cc3)nc3cccnc32)cc1 -0.0889%, COc1ccc(-c2cc(C(=O)Nc3ccc4c(c3)OCO4)no2)cc1OC -4.04%, COc1cc(NC(=O)c2cc(-c3cccs3)on2)c(OC)cc1Cl 1.54%, COc1ccc(CNc2nc(-c3ccco3)nn2C(=O)c2ccccc2Cl)cc1 -3.71%, COc1ccc(NC(=O)C(=O)NCCc2ccc(OC)c(OC)c2)c(OC)c1 1.01%, Cc1c(NC(=O)c2cc(-c3ccc(O)cc3)on2)c(=O)n(-c2ccccc2)n1C 3.8%, COc1ccccc1CNc1nc2ccccc2c2nc(-c3cccnc3)nn12 -1.76%, O=C(COc1ccccc1Cl)OCc1cc(=O)n2nc(C3CC3)sc2n1 -6.99%, COCCCNC(=O)c1cnn(-c2ccccc2Cl)c1C1CCN(C(=O)OC(C)(C)C)CC1 -1.21%, COc1ccc(CNC(=O)C2CCN(C(=O)c3ccc(-n4ccc5ccccc54)s3)CC2)cc1 4.23%, COc1ccc(CCNC(=O)c2cccc(-n3c(C)nc4cccnc43)c2)cc1OC -9.11%, COc1ccc(-c2cc3nc(-c4ccc(Br)cc4)cc(C(F)(F)F)n3n2)cc1 0.625%, COC(=O)c1ccc(NC(=O)CSc2cn(CC(=O)N3CCCCCC3)c3ccccc23)cc1 -23.4%, Cc1nn(-c2nc(-c3ccc(F)cc3)cc(C(F)(F)F)n2)c(C)c1Br -1.44%, COc1cccc(C(=O)Nc2ccccc2C(=O)OCc2cc(=O)n3c(C)csc3n2)c1 0%, COc1ccc(NC(=O)Cn2c(C)cc3ccccc3c2=O)c(OC)c1 1.56%, COC(=O)c1cc(C)nc2c1c(=O)nc(SCc1cccc(C)c1)n2C1CC1 3.36%, CCOC(=O)c1ccccc1NC(=O)Nc1cc2c(cc1N1CCCCC1)n(C)c(=O)n2C -7.88%, Cc1nn(-c2ccc(F)cc2)c(-n2cccc2)c1C(=O)NCCCN1CCN(c2ccccc2F)CC1 -14%, CCOc1ccc(CNC(=O)CCS(=O)(=O)c2cc3c(cc2Cl)NC(=O)CO3)cc1OC -6.16%, O=C(Nc1ccc(N2CCC(c3ccccc3)C2)c(C(=O)O)c1)c1ccc(Cl)cc1 (stereo not given) -6.56%, COc1cccc(NC(=O)CCc2c(C)nc3c4cccnc4nn3c2C)c1 0.999%, CCOc1ccc(Oc2nc(NCC(C)C)nc(NC(C)(C)C)n2)nn1 -2.39%, COc1ccccc1OCC(=O)N(Cc1ccc(Cl)cc1)CC1CCCO1 (stereo not given) -1.68%, CCc1cccc(CC)c1NC(=O)c1ccc2c(c1)CCN2S(=O)(=O)c1ccccc1 -1.19%, Cc1cccc(NC(=O)CN2C(=O)c3cccnc3Oc3ccc(Cl)cc32)c1C -1.22%, CSc1ccc(CCNC(=O)CCCn2nc(C)c3sc4ccccc4c3c2=O)cc1 1.89%, COCCCNc1ncnc2onc(-c3ccc(F)cc3)c12 -0.408%, COCCCNC(=O)CN1C(=O)COc2ccc(S(=O)(=O)N3CCCC3)cc21 -0.137%, COc1ccc(C(=O)NCCn2cc(SCC(=O)NCCc3ccc(OC)c(OC)c3)c3ccccc32)cc1 -3.04%, COc1cccc(NC(=O)Cn2cnc3c(nc4n3CCCCC4)c2=O)c1 5.83%, Cc1ccc(NC(=O)Cn2c(=O)c3cc(Cl)ccc3n3nncc23)cc1 -1.57%, Cc1n[nH]c(C)c1S(=O)(=O)N(CC(=O)NC(C)c1ccccc1)c1ccc(C(C)C)cc1 (stereo not given) -4.71%, CC1=C(c2ccc(C)c(C)c2)S(=O)(=O)N=C1N1CCC(C(=O)NCCc2ccco2)CC1 -12.9%, Cc1ccc(-c2cc(C(=O)N3CCN(S(=O)(=O)c4ccc(Br)cc4)CC3)[nH]n2)cc1C 0.94%, CS(=O)(=O)N1CCc2cc(C(=O)NCCc3ccccc3)ccc21 2.99%, CCC(=O)NCC(c1ccc2c(c1)OCO2)N1CCN(c2ccccc2)CC1 (stereo not given) 0.446%, Cc1nc2ccccc2c(=O)n1-c1ccc(NC(=O)c2ccc([N+](=O)[O-])cc2)cc1 -7.95%, CCOc1ccc(NCc2cccn2-c2nnc(N3CCC(C(=O)NCCc4ccc(OC)c(OC)c4)CC3)s2)cc1 -9.16%, Cc1ccccc1CNC(=O)C(=O)NCC(c1ccco1)S(=O)(=O)c1ccccc1 (stereo not given) 2.9%, COc1ccc(C(=O)Nc2nnc(S(=O)(=O)N(C)c3ccc(Cl)cc3)s2)cc1OC 9%, Cc1ccc(CCNC(=O)c2cn(C)c3ccc(S(=O)(=O)N4CCCCC4)cc3c2=O)cc1 -6.39%, CCCS(=O)(=O)N1CCCC(C(=O)NCCCOC)C1 (stereo not given) 8.29%, Cc1ccc2[nH]c(CSc3nnc(NC(=O)c4ccccc4C)s3)cc(=O)c2c1 8.58%, COc1cc(OC)cc(C(=O)Nc2ccc3c(c2)N(C2CCCC2)C(=O)c2ccccc2S3)c1 -10.5%, O=C(NCc1ccccc1Cl)c1cc2ccccc2o1 -1.73%, O=C(CSc1nc2ccccc2nc1Cc1ccccc1)N1CCCCC1 -18.2%, CCc1cccc(NC(=O)CCS(=O)(=O)c2cc(Br)cc3c2N(C(C)=O)CC3)c1 11.1%, CCc1ccc(C2CC(=O)Nc3c2c(C)nn3-c2nc(C)cc(C)n2)cc1 (stereo not given) -7.11%, CCOc1ccc(-c2nnc(SCC(=O)NCc3ccccc3)nc2-c2ccc(OCC)c(OC)c2)cc1OC -9.66%, CCOc1ccccc1NC(=O)N1CCN(Cc2nc3ccc(C)cc3o2)CC1 0%, Cc1ccc(C)c(N2CCN(S(=O)(=O)c3c(C)nc4sccn4c3=O)CC2)c1 -1.36%, Cc1cc(C)cc(-n2c(SCC(N)=O)nc3c(oc4ccccc43)c2=O)c1 -7.54%, CCCCOc1cccc(C(=O)Nc2ccc3oc(-c4cccnc4)nc3c2)c1 -2.78%, COc1cccc(Nc2c3c(nc4nncn24)CCC3)c1 -4.36%, CCOc1ccccc1NC(=O)Cn1cnc2sc(C)c(S(=O)(=O)N3CCC(C)CC3)c2c1=O 3.19%, Cc1cccc(C)c1Nc1sc(C(=O)c2ccccc2)c(N)c1C(=O)Nc1ccc(F)cc1 -6.38%, CCOc1ccccc1NC(=O)Cn1c(=O)n(Cc2ccccc2)c(=O)c2c(C)c(C)sc21 -15.2%, O=C(Nc1nc2n(n1)C(c1ccccc1)C=C(c1ccccc1)N2)c1ccc(Cl)c([N+](=O)[O-])c1 (stereo not given) 3.24%, CCC(C)NC(=O)Cn1ncc2c([nH]c3ccc(C)cc32)c1=O (stereo not given) -1.7%, CCOC(=O)c1[nH]c(C)c(CCC(=O)NCc2ccc(OCC)cc2)c1C -16.9%, COc1ccc2c(C)c(CC(=O)NCc3ccc(C)cc3)c(=O)oc2c1OC 7.02%, CC(C)OCCCNC(=O)c1cc2c(-c3ccc(Cl)cc3)nn(C)c2s1 1.15%, COc1cc(NC(=O)C2CCCN(S(=O)(=O)c3ccc4c(c3)oc(=O)n4C)C2)c(C(=O)O)cc1OC (stereo not given) 0.861%, CCCCC(Sc1nc2cc3c(cc2c(=O)n1CCCC(=O)NCc1ccc(OC)cc1)OCO3)C(=O)OCC (stereo not given) -12.8%, CCc1ccc(NC(=O)C(=O)NCCc2csc(-c3ccc(C(F)(F)F)cc3)n2)cc1 -8.51%, O=C(NCc1ccccc1F)c1ccc(CN2CC(=O)N3CCCCC3C2=O)cc1 (stereo not given) -12.1%, Cc1cc(C)c(NC(=O)Cn2c(=O)n(Cc3ccc4c(c3)OCO4)c(=O)c3ccc(C(=O)NC4CCCCC4)cc32)c(C)c1 -1.56%, COc1cccc(C(=O)N2c3cc(C)ccc3C(C)(c3ccccc3)CC2(C)C)c1 (stereo not given) 3.06%, N#C/C(=C\c1ccc(Cl)cc1)c1nc(-c2cc3ccccc3oc2=O)cs1 -4.61%, CCOC(=O)c1sc2cccc(F)c2c1S(=O)(=O)N1CCN(c2cccc(Cl)c2)CC1 0.682%, CCc1ccc(CNC(=O)c2cnc3sc4cc(OC)ccc4n3c2=O)cc1 1.28%, CCCn1c2ccccc2c2cnn(CC(=O)N3CCC(C)CC3)c(=O)c21 4.72%, COc1ccc(Nc2ncc3c(n2)CCN(Cc2cc(Br)cs2)C3)c(OC)c1 4.22%, CCOC(=O)c1ccc(N2CCN(c3cc(C)ccc3C)CC2)c(NC(=O)Nc2ccccc2)c1 8.67%, COc1ccccc1NC(=O)c1cc2c(=O)oc3ccc(C)cc3c2s1 -5.03%, O=C(O)CSc1c2c(nc3cc(C(=O)Nc4ccc(F)c(Cl)c4)ccc13)CCC2 2.04%, CCCCOc1ccccc1C(=O)N(Cc1ccc(C)o1)C1CCS(=O)(=O)C1 (stereo not given) -4.54%, Cc1ccc(NC(=O)CSc2nc3c(oc4ccccc43)c(=O)n2-c2ccc(F)cc2)c(C)c1 -0.246%, C=Cc1ccc(Cn2nc(-c3ccc(C)c(S(=O)(=O)N(CC)CC)c3)ccc2=O)cc1 -15.2%, Cn1nc(-c2ccc(C(=O)Nc3ccc(F)cc3)cc2)c2ccccc2c1=O 1.25%, COCCCNC(=O)CCCCn1c(=O)c2ccccc2n(CC(=O)Nc2ccc(C)cc2C)c1=O -23.9%, Cc1cccn2c(=O)c3cc(C#N)c(=O)n(-c4nnc(SCc5ccccc5F)s4)c3nc12 -2.3%, COCCNC(=O)CSc1nc2cc3c(cc2c(=O)n1CCCCCC(=O)NCc1ccc(OC)cc1)OCO3 -1.22%, COc1ccc(CNC(=O)c2ccc3c(c2)nc2n3CCC(C)C2)c(OC)c1 (stereo not given) 4.19%, CC(C)c1ccc(S(=O)(=O)NCc2ccc3c(c2)CCN3C(=O)c2ccccc2)cc1 4.47%, CCOc1ccccc1NC(=O)Cn1nnc2sc(-c3ccccc3)cc2c1=O 0.0994%, CC(C(=O)NCc1ccccc1F)n1ccc2cc(S(=O)(=O)N3CCCC3)ccc21 (stereo not given) -3.97%, COc1ccc(Br)cc1C(=O)Nc1nc2ccc(F)cc2s1 6.19%, CCOc1ccccc1NC(=O)c1c(NC(=O)c2cccc(C)c2)sc2c1CCCC2 5.33%, CCc1ccccc1NC(=O)Nc1cc(C(=O)NCc2ccc(C)cc2)ccc1N1CCCC1 2.74%, O=C(Nc1ccc(C(F)(F)F)cc1)C1CCCN(c2cnccn2)C1 (stereo not given) -3.99%, O=C(Nc1ccccc1Cl)N1CCC(CN2CCCCC2)CC1 -6.23%, CC1CN(C(=O)Nc2ccc(C(=O)NCc3cccc(F)c3)cc2)c2ccccc2S1 (stereo not given) -1.43%, O=c1c(S(=O)(=O)c2ccccc2)cn(Cc2ccccc2)c2cc(N3CCOCC3)c(F)cc12 -12.3%
